According to the BET-seq Pho4 binding data (Le et al. 2018):
The other results are listed elsewhere or left out. The energies were worked out here from pooled read counts, against the library average; single values are noisy.

Each sequence was assayed against T1, Pho4 (S. cerevisiae) (UniProt P07270) (assay: relative binding free energy (BET-seq); higher = weaker binding). Conditions: reference: library average.
T1 sequence: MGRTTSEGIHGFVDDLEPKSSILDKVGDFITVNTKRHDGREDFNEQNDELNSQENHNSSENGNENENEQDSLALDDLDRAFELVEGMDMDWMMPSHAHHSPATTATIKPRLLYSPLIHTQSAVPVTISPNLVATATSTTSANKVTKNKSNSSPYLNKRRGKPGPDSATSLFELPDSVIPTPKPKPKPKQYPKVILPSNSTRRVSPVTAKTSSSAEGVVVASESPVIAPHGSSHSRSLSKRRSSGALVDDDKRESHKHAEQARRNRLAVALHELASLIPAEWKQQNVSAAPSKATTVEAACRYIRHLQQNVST

Row | Sequence | relative binding free energy [kcal/mol]
1 | TAGGCCACGTGTGTTG | -0.01
2 | AATTGCACGTGAGCGG | 0.02
3 | GGGTGCACGTGGGGTT | -0.08
4 | GGTTTCACGTGGGATC | 0.34
5 | CCGGTCACGTGGGTTT | -0.01
6 | TGTGCCACGTGGGTTT | -0.14
7 | CTGGGCACGTGCGGTG | -0.11
8 | GATCTCACGTGGTGTA | 0.28
9 | AGGTTCACGTGGTAGG | 0.29
10 | TATGTCACGTGATGGG | 0.23
11 | AGTTGCACGTGGATAG | 0.02
12 | TTTTGCACGTGATATA | 0.09
13 | CTTAACACGTGTGGAT | 0.03
14 | TATGGCACGTGCTTAA | 0
15 | GTGGTCACGTGTTACA | 0.17
16 | TATGCCACGTGGTTTA | -0.2
17 | CTTATCACGTGGATTT | 0.23
18 | TTTGGCACGTGGGTTG | -0.17
19 | ATTATCACGTGCAGAT | 0.19
20 | GGTTGCACGTGCGGTC | -0.01
21 | GAGTACACGTGGGATT | 0.13
22 | TAGGTCACGTGTGAAG | 0.19
23 | TGGCACACGTGTTGAT | 0.12

Row | Sequence | relative binding free energy [kcal/mol]
24 | AACGGCACGTGGGTTA | -0.17
25 | CGGGGCACGTGGATAT | 0.09
26 | ATTATCACGTGGTTAT | 0.11
27 | TGTACCACGTGTTTGG | -0.2
28 | AGGTGCACGTGATGGG | 0.1
29 | TTGTTCACGTGTCGCT | 0.11
30 | AGGTTCACGTGCGGGA | 0.09
31 | TATAGCACGTGGAGGT | -0.17
32 | GGCAACACGTGGTTTT | 0.08
33 | TTCAGCACGTGTAGGA | -0.1
34 | ACATTCACGTGGGTTG | 0
35 | GGGGGCACGTGTTGTA | 0
36 | TGCGTCACGTGTTAAA | 0.12
37 | TCGTACACGTGGTTAT | 0.09
38 | ATGGACACGTGCGGAG | 0.02
39 | GGGAGCACGTGGGCAA | -0.14
40 | GTAAACACGTGCTGTG | 0.06
41 | ATTTGCACGTGTTAAG | 0.11
42 | CGATACACGTGGGAGG | -0.02
43 | AGTTGCACGTGGCCTT | -0.2
44 | TAGGACACGTGATGAG | 0.21
45 | TTGGTCACGTGTGGCT | 0.26
46 | CGTGACACGTGTTTAT | 0.17

Row | Sequence | relative binding free energy [kcal/mol]
47 | CTTGGCACGTGAGCGG | 0.12
48 | ATTGTCACGTGTGTAA | 0.09
49 | TGGAGCACGTGTTGTT | -0.05
50 | TGGGACACGTGGGCGA | -0.16
51 | ACCGGCACGTGTGGGT | -0.06
52 | GAGTGCACGTGCGCGT | -0.09
53 | AATGTCACGTGTCGGT | -0.03
54 | TGGGGCACGTGGATTT | 0.04
55 | TTCGGCACGTGAATTG | 0.11
56 | AGGTTCACGTGAACGG | 0.35
57 | ATGAGCACGTGAGTGT | 0.03
58 | TATTGCACGTGTTATC | -0.04
59 | GGTTTCACGTGTCGTT | 0.28
60 | CGGGCCACGTGTTAGT | -0.05
61 | GGATGCACGTGGGGTA | -0.18
62 | TTAGTCACGTGAAGTC | 0.39
63 | GTGATCACGTGGTCTA | 0.19
64 | ATCTGCACGTGTTAGA | 0
65 | ACTGTCACGTGTGGAG | -0.08
66 | GGTTTCACGTGCGCTG | 0.18
67 | CTTAGCACGTGGGTCT | -0.13
68 | ATGGGCACGTGGATCT | -0.23
69 | GTCGTCACGTGGAGTA | 0.02

Row | Sequence | relative binding free energy [kcal/mol]
70 | GTGTTCACGTGTTGGG | 0.28
71 | GAGGGCACGTGATTAG | -0.01
72 | TGCAGCACGTGGGTGC | -0.33
73 | GAGTCCACGTGGGGTT | 0.06
74 | GAGTGCACGTGGGCTA | -0.09
75 | TTAGACACGTGAGGTT | 0.28
76 | GAATGCACGTGTATTT | 0.08
77 | ATTGTCACGTGGGGAT | 0.04
78 | AAGTGCACGTGGGGGT | -0.25
79 | TGCATCACGTGGTGCG | 0.13
80 | TATTTCACGTGGATAA | 0.36
81 | CTTGTCACGTGTGCGT | -0.08
82 | GGGAGCACGTGGTAAG | -0.07
83 | TGTTGCACGTGTCTTA | 0.1
84 | ATTGCCACGTGTGATG | 0.03
85 | TGGATCACGTGTGAGC | 0.16
86 | AGTTTCACGTGTAACT | 0.28
87 | AGTATCACGTGATGCT | 0.25
88 | AGGTCCACGTGTCAGG | 0.11
89 | CATGGCACGTGTTACT | 0.13
90 | TTTTTCACGTGCGGGG | 0.25
91 | GTGAGCACGTGTGAAA | 0.05
92 | GAGCGCACGTGGTTCG | 0.12

Row | Sequence | relative binding free energy [kcal/mol]
93 | TCGGGCACGTGAAAGT | 0.26
94 | TTACGCACGTGGTGCG | -0.29
95 | GTTTGCACGTGCGTAT | 0.02
96 | TCAGTCACGTGTAGGG | 0.05
97 | GAGAACACGTGTTTTT | 0.4
98 | TGGTTCACGTGCGGCT | 0.26
99 | TATCTCACGTGTTCGT | 0.15
100 | CCGGGCACGTGTTAGG | -0.15
101 | GTTCGCACGTGTAAGT | 0.17
102 | TCTCTCACGTGGGGTA | 0.05
103 | TGCGGCACGTGTGGAG | 0.01
104 | GACGACACGTGTGTTT | 0.27
105 | GCAGCCACGTGGTGTG | -0.13
106 | ATTTACACGTGAGAAG | 0.48
107 | TTGGGCACGTGGTTTT | 0.09
108 | AGCGGCACGTGGGAAG | -0.19
109 | AAGCGCACGTGTGCGT | -0.02
110 | GTATACACGTGTATAG | 0.01
111 | GATGGCACGTGAAGGT | 0.34
112 | TGGGCCACGTGGTTAG | -0.09
113 | TTGCCCACGTGTTGTA | -0.09
114 | CTTTCCACGTGTTAGT | 0.21
115 | GTGGACACGTGTGTCA | 0
